Reference: publication PMC12820563
The list shows a part of the results. The list includes weakly bound sequences.

Target: T1, MBP-FoxP3dN (UniProt Q99JB6)
T1 sequence: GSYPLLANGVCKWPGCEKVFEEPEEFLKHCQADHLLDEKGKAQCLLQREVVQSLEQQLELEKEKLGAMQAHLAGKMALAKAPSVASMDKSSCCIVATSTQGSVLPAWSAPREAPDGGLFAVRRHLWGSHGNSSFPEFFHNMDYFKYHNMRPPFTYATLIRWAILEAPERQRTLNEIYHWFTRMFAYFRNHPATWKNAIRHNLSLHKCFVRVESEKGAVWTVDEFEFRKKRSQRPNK
Test: PD-seq (MBP pull-down with sequencing)
Settings: 20 mM Tris-HCl pH 7.5, 100 mM NaCl, 1.5 mM MgCl2, 0.4 uM protein, 0.1 uM dsDNA library, 30 min, room temperature, amylose pull-down; high values mean tight binding; double strand, one strand shown

Sequence | binding signal (RPM ratio (pull-down/input))
GATGATTGTTCTCCCAGCTGATGAATTACACTATTCGAGTAAACAAATTTTCCTAATCTTTCTGTTCAAGCGCCATCTAC | 0.606
GATGATTGTTCTCCCAGCTGATGAATTTCACCCATCGAGTAAACAAATTTTCCTAATCTTTCTGTTCAAGCGCCATCTAC | 0.324
GATGATTGTTCTCCCAGCTGATGAATTGCGAAACTCGAGTAAACAAATTTTCCTAATCTTTCTGTTCAAGCGCCATCTAC | 0.927
GATGATTGTTCTCCCAGCTGATGAATTGCGCGGGTCGAGTAAACAAATTTTCCTAATCTTTCTGTTCAAGCGCCATCTAC | 1.11
GATGATTGTTCTCCCAGCTGATGAATTTACGTCCTCGAGTAAACAAATTTTCCTAATCTTTCTGTTCAAGCGCCATCTAC | 0.69
GATGATTGTTCTCCCAGCTGATGAATTACTGAATTCGAGTAAACAAATTTTCCTAATCTTTCTGTTCAAGCGCCATCTAC | 0.586
GATGATTGTTCTCCCAGCTGATGAATTCTAATATTCGAGTAAACAAATTTTCCTAATCTTTCTGTTCAAGCGCCATCTAC | 1.35
GATGATTGTTCTCCCAGCTGATGAATTGAGGCTATCGAGTAAACAAATTTTCCTAATCTTTCTGTTCAAGCGCCATCTAC | 1.18
GATGATTGTTCTCCCAGCTGATGAATTTAGTCCATCGAGTAAACAAATTTTCCTAATCTTTCTGTTCAAGCGCCATCTAC | 0.461
GATGATTGTTCTCCCAGCTGATGAATTGCATCCCTCGAGTAAACAAATTTTCCTAATCTTTCTGTTCAAGCGCCATCTAC | 4.21
GATGATTGTTCTCCCAGCTGATGAATTAACCGTGTCGAGTAAACAAATTTTCCTAATCTTTCTGTTCAAGCGCCATCTAC | 0.36
GATGATTGTTCTCCCAGCTGATGAATTAACGGTGTCGAGTAAACAAATTTTCCTAATCTTTCTGTTCAAGCGCCATCTAC | 0.494
GATGATTGTTCTCCCAGCTGATGAATTTTGTTTGTCGAGTAAACAAATTTTCCTAATCTTTCTGTTCAAGCGCCATCTAC | 7.3
GATGATTGTTCTCCCAGCTGATGAATTAACGGAATCGAGTAAACAAATTTTCCTAATCTTTCTGTTCAAGCGCCATCTAC | 0.197
GATGATTGTTCTCCCAGCTGATGAATTCACCTAATCGAGTAAACAAATTTTCCTAATCTTTCTGTTCAAGCGCCATCTAC | 0.274
GATGATTGTTCTCCCAGCTGATGAATTAGGCATCTCGAGTAAACAAATTTTCCTAATCTTTCTGTTCAAGCGCCATCTAC | 6.82
GATGATTGTTCTCCCAGCTGATGAATTCATGGTATCGAGTAAACAAATTTTCCTAATCTTTCTGTTCAAGCGCCATCTAC | 0.752
GATGATTGTTCTCCCAGCTGATGAATTATCTACATCGAGTAAACAAATTTTCCTAATCTTTCTGTTCAAGCGCCATCTAC | 0.49
GATGATTGTTCTCCCAGCTGATGAATTGGTTGGGTCGAGTAAACAAATTTTCCTAATCTTTCTGTTCAAGCGCCATCTAC | 2.43
GATGATTGTTCTCCCAGCTGATGAATTTTCTGAGTCGAGTAAACAAATTTTCCTAATCTTTCTGTTCAAGCGCCATCTAC | 0.252
GATGATTGTTCTCCCAGCTGATGAATTACACTAGTCGAGTAAACAAATTTTCCTAATCTTTCTGTTCAAGCGCCATCTAC | 0.456

Sequence | binding signal (RPM ratio (pull-down/input))
GATGATTGTTCTCCCAGCTGATGAATTACGAGTATCGAGTAAACAAATTTTCCTAATCTTTCTGTTCAAGCGCCATCTAC | 0.782
GATGATTGTTCTCCCAGCTGATGAATTGAGCTCGTCGAGTAAACAAATTTTCCTAATCTTTCTGTTCAAGCGCCATCTAC | 0.509
GATGATTGTTCTCCCAGCTGATGAATTATTGACTTCGAGTAAACAAATTTTCCTAATCTTTCTGTTCAAGCGCCATCTAC | 1.58
GATGATTGTTCTCCCAGCTGATGAATTCGCTTGCTCGAGTAAACAAATTTTCCTAATCTTTCTGTTCAAGCGCCATCTAC | 1.87
GATGATTGTTCTCCCAGCTGATGAATTCTACGGATCGAGTAAACAAATTTTCCTAATCTTTCTGTTCAAGCGCCATCTAC | 0.204
GATGATTGTTCTCCCAGCTGATGAATTCAACCTTTCGAGTAAACAAATTTTCCTAATCTTTCTGTTCAAGCGCCATCTAC | 0.315
GATGATTGTTCTCCCAGCTGATGAATTGCATCCTTCGAGTAAACAAATTTTCCTAATCTTTCTGTTCAAGCGCCATCTAC | 5.53
GATGATTGTTCTCCCAGCTGATGAATTTTGGCAATCGAGTAAACAAATTTTCCTAATCTTTCTGTTCAAGCGCCATCTAC | 2.45
GATGATTGTTCTCCCAGCTGATGAATTGGTAATCTCGAGTAAACAAATTTTCCTAATCTTTCTGTTCAAGCGCCATCTAC | 0.758
GATGATTGTTCTCCCAGCTGATGAATTACGTAACTCGAGTAAACAAATTTTCCTAATCTTTCTGTTCAAGCGCCATCTAC | 1.38
GATGATTGTTCTCCCAGCTGATGAATTTCTAGGTTCGAGTAAACAAATTTTCCTAATCTTTCTGTTCAAGCGCCATCTAC | 0.257
GATGATTGTTCTCCCAGCTGATGAATTTCCATTATCGAGTAAACAAATTTTCCTAATCTTTCTGTTCAAGCGCCATCTAC | 0.461
GATGATTGTTCTCCCAGCTGATGAATTATAGCCCTCGAGTAAACAAATTTTCCTAATCTTTCTGTTCAAGCGCCATCTAC | 0.551
GATGATTGTTCTCCCAGCTGATGAATTACAAGCATCGAGTAAACAAATTTTCCTAATCTTTCTGTTCAAGCGCCATCTAC | 1.16
GATGATTGTTCTCCCAGCTGATGAATTGTAAAGGTCGAGTAAACAAATTTTCCTAATCTTTCTGTTCAAGCGCCATCTAC | 0.258
GATGATTGTTCTCCCAGCTGATGAATTCTGTCACTCGAGTAAACAAATTTTCCTAATCTTTCTGTTCAAGCGCCATCTAC | 3.22
GATGATTGTTCTCCCAGCTGATGAATTCGTCTCCTCGAGTAAACAAATTTTCCTAATCTTTCTGTTCAAGCGCCATCTAC | 0.471
GATGATTGTTCTCCCAGCTGATGAATTGGGATGCTCGAGTAAACAAATTTTCCTAATCTTTCTGTTCAAGCGCCATCTAC | 0.866
GATGATTGTTCTCCCAGCTGATGAATTGAGGGACTCGAGTAAACAAATTTTCCTAATCTTTCTGTTCAAGCGCCATCTAC | 0.384
GATGATTGTTCTCCCAGCTGATGAATTGCCTCATTCGAGTAAACAAATTTTCCTAATCTTTCTGTTCAAGCGCCATCTAC | 0.981
GATGATTGTTCTCCCAGCTGATGAATTGACGAAATCGAGTAAACAAATTTTCCTAATCTTTCTGTTCAAGCGCCATCTAC | 0.356

Sequence | binding signal (RPM ratio (pull-down/input))
GATGATTGTTCTCCCAGCTGATGAATTACTCAACTCGAGTAAACAAATTTTCCTAATCTTTCTGTTCAAGCGCCATCTAC | 0.336
GATGATTGTTCTCCCAGCTGATGAATTCAGGTGCTCGAGTAAACAAATTTTCCTAATCTTTCTGTTCAAGCGCCATCTAC | 0.442
GATGATTGTTCTCCCAGCTGATGAATTGGGTGAATCGAGTAAACAAATTTTCCTAATCTTTCTGTTCAAGCGCCATCTAC | 0.321
GATGATTGTTCTCCCAGCTGATGAATTCCCCGCTTCGAGTAAACAAATTTTCCTAATCTTTCTGTTCAAGCGCCATCTAC | 0.281
GATGATTGTTCTCCCAGCTGATGAATTCGGATAATCGAGTAAACAAATTTTCCTAATCTTTCTGTTCAAGCGCCATCTAC | 0.272
GATGATTGTTCTCCCAGCTGATGAATTGATTGTATCGAGTAAACAAATTTTCCTAATCTTTCTGTTCAAGCGCCATCTAC | 2.11
GATGATTGTTCTCCCAGCTGATGAATTGTAATGTTCGAGTAAACAAATTTTCCTAATCTTTCTGTTCAAGCGCCATCTAC | 1.55
GATGATTGTTCTCCCAGCTGATGAATTGGCTCCGTCGAGTAAACAAATTTTCCTAATCTTTCTGTTCAAGCGCCATCTAC | 0.231
GATGATTGTTCTCCCAGCTGATGAATTAGATTGCTCGAGTAAACAAATTTTCCTAATCTTTCTGTTCAAGCGCCATCTAC | 1.88
GATGATTGTTCTCCCAGCTGATGAATTGTATATATCGAGTAAACAAATTTTCCTAATCTTTCTGTTCAAGCGCCATCTAC | 3.21
GATGATTGTTCTCCCAGCTGATGAATTCATCCTTTCGAGTAAACAAATTTTCCTAATCTTTCTGTTCAAGCGCCATCTAC | 0.37
GATGATTGTTCTCCCAGCTGATGAATTATGCTTATCGAGTAAACAAATTTTCCTAATCTTTCTGTTCAAGCGCCATCTAC | 4.84
GATGATTGTTCTCCCAGCTGATGAATTCAACCCCTCGAGTAAACAAATTTTCCTAATCTTTCTGTTCAAGCGCCATCTAC | 0.287
GATGATTGTTCTCCCAGCTGATGAATTTTCCATATCGAGTAAACAAATTTTCCTAATCTTTCTGTTCAAGCGCCATCTAC | 0.304
GATGATTGTTCTCCCAGCTGATGAATTATTATACTCGAGTAAACAAATTTTCCTAATCTTTCTGTTCAAGCGCCATCTAC | 0.575
GATGATTGTTCTCCCAGCTGATGAATTTGTGTGATCGAGTAAACAAATTTTCCTAATCTTTCTGTTCAAGCGCCATCTAC | 3.4
GATGATTGTTCTCCCAGCTGATGAATTGCTCGTATCGAGTAAACAAATTTTCCTAATCTTTCTGTTCAAGCGCCATCTAC | 0.705
GATGATTGTTCTCCCAGCTGATGAATTATCGCATTCGAGTAAACAAATTTTCCTAATCTTTCTGTTCAAGCGCCATCTAC | 6.64
GATGATTGTTCTCCCAGCTGATGAATTGTTAATTTCGAGTAAACAAATTTTCCTAATCTTTCTGTTCAAGCGCCATCTAC | 0.632
GATGATTGTTCTCCCAGCTGATGAATTACGGTCCTCGAGTAAACAAATTTTCCTAATCTTTCTGTTCAAGCGCCATCTAC | 0.477
GATGATTGTTCTCCCAGCTGATGAATTGGTCGATTCGAGTAAACAAATTTTCCTAATCTTTCTGTTCAAGCGCCATCTAC | 0.35
